# From ChEMBL document CHEMBL4888484, “Replenishing the malaria drug discovery pipeline: Screening and hit evaluation of the MMV Hit Generation Library 1 (HGL1) against asexual blood stage Plasmodium falciparum ,using a nano luciferase reporter read-out” (2022)
# Out of some 150,000 compounds screened, about 540 (0.36%) showed an effect of 50% or more. Some of the results follow.
# Tested on: Plasmodium falciparum
# Assay: Primary screen in NF54 nanoGlo assay, in single point, at 2uM, 72h; a lower Z score goes with more inhibition
# Assay type: functional, Erythrocyte
# Details: timepoint 72 hour
SMILES,% Inhibition [%],Z score
Oc1ccc2ccccc2c1-c1nc2ncccn2c1Nc1ccccc1,-3,0.48
CC(C)(C)OC(=O)N1CCC(C)(c2nc([C@H]3CCOC3)no2)CC1,0,-0.03
COC(C)CN1CCOCC1C(N)=O (configuration not stated),6,-0.73
O=C(c1cccc2cc[nH]c12)N1CCC(N2CCC[C@H](O)C2)CC1,7,-1.09
COCc1c(C(=O)NCC2CC3C=CC2C32CC2)c(=O)cc(C)n1CCc1cccc(Cl)c1 (configuration not stated),-10,1.75
CC1(C)O[C@H]2[C@@H](O1)[C@@H](C(=O)Nc1nccs1)O[C@@H]1OC(C)(C)O[C@@H]12,-11,1.27
CC(C)N(CCOCCO)C(=O)Nc1cc(Cl)ccc1F,-7,1.4
COC1(c2noc(CCn3cccn3)n2)CCC1,-3,0.48
Cc1ccccc1-c1noc(CN2C[C@@H]3CC[C@H](CC2=O)N3)n1,-8,0.93
COCCN1C(=O)c2ccccc2N[C@@H]1c1ccc(OCc2ccncc2)c(OC)c1,-8,0.73
O=C(CNC(=O)N1CCCC1)Nc1cc(-c2cccs2)on1,1,-0.2
Cn1cc(C(=O)NC2CCN(Cc3nnsc3Cl)CC2)cn1,-6,1.11
Cc1n[nH]c([C@H]2CCN(Cc3ccc[nH]3)C[C@H]2NC(=O)C2CCOCC2)n1,-15,1.95
CC(CCn1cccn1)NC1CCc2c(O)cccc21 (configuration not stated),1,-0.1
O=C([C@@H]1Cc2ccccc2S(=O)(=O)N1)N1CCc2c(Cl)cccc2C1,2,-0.26
CC(C)(C)c1nnc(NCCc2cccc(C(N)=O)c2)s1,-16,2.22
CCOC(=O)c1c(C)[nH]c(C(=O)N2CCC[C@H](C(=O)NCc3ccccc3Cl)C2)c1C,0,0.04
CC(C)(C)OC(=O)N/N=C(\Cc1ccc(Cl)cc1)NCc1ccco1,-13,1.43
CCc1nnc(NC(=O)NCc2c[nH]nn2)s1,31,-4.24
CC(C)Cc1nc(C(=O)NC(C)(C)CN2CCOCC2)cs1,-2,0.26
CCC[C@H]1COCCN1Cc1ncc[nH]1,-11,2.1
CN(C)c1ccc([C@H]2CC3(C)NC(=O)C2C(=O)N3)cc1,-8,1.07

SMILES,% Inhibition [%],Z score
O=C(Cc1cccs1)N1CCC[C@H](n2ccc(C(F)(F)F)n2)C1,6,-1.09
CN1C2CCC1CN(C(=O)NC(c1ccccc1)C1CCCO1)CC2 (configuration not stated),-2,0.18
O=C(O)C1(n2cnc3ccccc32)CCN(c2nnnn2-c2ccccc2)CC1,7,-0.79
COC[C@@H]1C[C@H](OC)CN1C(=O)C1CCC(O)CC1 (some centres not stated),-14,1.69
CN(C)c1ncccc1N(C)C(=O)c1cscn1,-11,1.54
Cc1cccc2c3c([nH]c12)CCN(C(=O)CCn1nnnc1C)C3,-1,0.16
Cc1ccc(NS(=O)(=O)c2cc(C(=O)NCCCn3ccnc3)ccc2Cl)c(C)c1,-34,4.04
Cc1ccncc1C(=O)Nc1ccccc1OC[C@H]1CCCO1,-3,0.55
Cc1nc([C@@H](c2cccc(F)c2)N(C)C)n(CCO)n1,-6,0.95
O=C(CCN1CCC[C@H]1c1ccccc1)NCc1cccs1,-11,1.83
COC(=O)c1nc(CCNc2nc(C)nc(C)c2C)sc1C,5,-1.02
CCOc1cccc(Cn2cc(C(N)=O)nc2C2CC2)n1,-8,0.72
O=C(COc1cccc(Cl)c1)OCC(=O)N(C1CCCCC1)[C@H]1CCS(=O)(=O)C1,-4,0.66
Cc1ccc(C)c(OCC(=O)N2CCN(C(=O)[C@@H]3CCCO3)CC2)c1,-40,4.73
C[C@@H](c1nccs1)N(C)C(=O)c1ccc(NCc2nc3ccccc3n2C)cc1,-1,0.18
O=C(Cc1cccs1)N1CCN(C(=O)c2cnn3ccccc23)CC1,-12,1.91
Cc1nc(N(C)C)sc1C(=O)N1CCNCC1,-4,0.45
O=C(N[C@H]1CCOC[C@@H]1OCc1ccccn1)c1cnc2cccnn12,-9,1.49
Cc1cc(C)cc(OC[C@@H](O)CNC(C)(C)CC(C)(C)C)c1,-3,0.43
Cc1csc(N2CCC(Nc3cnn(C)c3)CC2)n1,-7,0.74
CO[C@H]1CN[C@@H](C(=O)N(C)Cc2cc(C)ccc2C)C1,2,-0.36
Cc1ccc(Cl)cc1N1CCN(C(=O)c2cc(C3CC3)n[nH]2)CC1,-20,2.44

SMILES,% Inhibition [%],Z score
Cc1ccc2c(CC(=O)NCC(C)(C)c3ccccn3)c[nH]c2c1,-3,0.44
Cc1ccc(C)c(OCCON=C(N)Cc2csc(C)n2)c1,-2,0.24
O=S(=O)(Cc1ccon1)N1CCN(CC#Cc2ccccc2)CC1,3,-0.43
CCC(=O)N1CCc2sc(C(=O)N3CCN(c4ccccc4)CC3)cc2C1,-10,1.58
CN1CCN(C(=O)c2cc(Cc3ccccc3)n[nH]2)c2ccccc2C1,-8,1.09
Cc1ccc2nc(C[C@H]3CN(C(=O)Cc4ccccc4)CC[C@H]3CC(=O)O)[nH]c2c1,-1,0.16
Nc1nnnn1CC(=O)N1CCN(Cc2ccc3c(c2)OCO3)CC1,-7,1.26
Cc1nn(C(C)C)cc1C(=O)N(CCO)CC1CCCCC1,-9,1.13
CC(C)c1nc(CN(C)[C@H]2CCOC3(CCOCC3)C2)cs1,-2,0.27
CC(C)C(=O)NCCn1nc(-c2ccc(F)cc2)n(C2CC2)c1=O,-13,2.64
Cc1ccc(NC(=O)c2cnn3c2CCCC3)cc1,-5,0.86
Cc1csc(C(=O)N2CCN(c3ncc(F)cn3)C(=O)C2)c1,6,-1.07
COc1cc(-c2nc(CN(Cc3cccnc3)C[C@@H]3CCC(=O)N3)c(C)o2)cc2c1OCO2,-6,0.98
Cc1c(Br)c(=O)n(C)c(=O)n1C,-5,0.67
O=C(NCc1cnc2n1CCOC2)c1cscc1C(F)F,-4,0.4
CC(C)(C)C(=O)N1CC(CN2C(=O)COC2=O)C1,8,-1.11
O=C(CN1CCN(CC=Cc2ccc(Cl)cc2)CC1)NC1CC1,-13,1.2
C[C@H](C(=O)Nc1ccnn1-c1ccncc1)C1CCOCC1,-17,1.95
CN1CCN(C(=O)CCc2ccsc2)CC1,-8,0.9
COCC(=O)N[C@@H]1CCC[C@@H](C(=O)N(C)Cc2cccnc2)CC(=O)N(C)C1,2,-0.3
O=S(=O)(Nc1ccnc2ccncc12)c1ccc2c(c1)OCCCO2,-2,0.21
C[C@@H](c1ccc(F)c(Cl)c1)N(C)CC(N)=O,-14,1.87

SMILES,% Inhibition [%],Z score
COC[C@@H]1CN(C(=O)c2ccncc2)C[C@H]1c1ccncc1,-13,2.18
Cc1noc(C)c1CN(C)C(=O)N[C@H]1CCCN(C)C1,3,-0.26
CC[C@H](NC(=O)c1cn(C2CC2)c(C)cc1=O)c1c(C)noc1C,-14,1.74
c1ccc(OCCNCc2cscn2)cc1,-8,1.66
CC(=O)N1CCC(C(=O)O[C@@H](C)COc2cccc(F)c2)CC1,0,-0.02
Cc1ccc(O[C@H]2CCOC[C@H]2NC(=O)C2CCS(=O)(=O)CC2)cn1,-20,1.89
c1csc(-c2n[nH]c3c2CN(c2nc4ccccc4o2)CC3)c1,-15,2.15
CCC1(CC)CN(C(=O)N[C@@H]2CCC[C@H]2c2ccccc2)CCS1(=O)=O,-6,0.86
Cc1ccc(CN2C(=O)[C@H]3C(C(=O)Nc4ccc(C(C)C)cc4)[C@H]4C=C[C@@]3(O4)C2C(=O)NC2CCCC(C)C2C)cc1 (some centres not stated),-12,1.89
FC(F)(F)c1nc(-c2ccc3[nH]ccc3c2)n[nH]1,25,-2.68
CCn1ncc(C(=O)n2nc(C)cc2C)c1C,35,-1.04
CCN1CCCn2cc(S(=O)(=O)Nc3ccc(Cl)cc3)cc2C1=O,-3,0.37
CC(F)(F)c1ccccc1NC(=O)NC[C@H]1CCCC12CC2,2,-0.35
Cc1ccc(-c2ccc(O)cn2)c2cccnc12,0,-0.03
CC[C@H](NC(=O)c1cnn(Cc2ccccc2)c1)c1nc(C)n[nH]1,-7,0.82
CCc1sc(C(=O)Nc2ccc(CC(=O)N3CCOCC3)cc2)cc1C,-13,2.5
Cc1cc([C@@H](OC(=O)C2CCC(C(N)=O)CC2)C2CC2)ccc1F (some centres not stated),19,-2.22
CCOC(=O)c1c(C)nc(N2CCC3(CC2)OCCO3)n1C,4,-0.49
COc1ccc(C(=O)N2CCC[C@H](n3cc(C(=O)NCC(C)C)nn3)C2)cc1,12,-1.53
CCC(=O)C1CCCCN1C(=O)[C@H](O)c1ccccc1 (some centres not stated),3,-0.32
